Results: PubChem BioAssay AID686979 (National Center for Advancing Translational Sciences (NCATS), 2013)
Hit rate of the full screen: of about 420,000 compounds, about 50,000 (12%) were called active. The inconclusive results got no clear call from the source; some entries with a clear call stand among them for comparison. The call rests on the fitted dose curve; in most records, active means well fitted inhibition curve with a large enough effect; inconclusive means small, poorly fitted or top-dose-only effect; inactive means flat fitted curve, though single readings scatter. No potency is given beside an inconclusive call; the fits are too rough.
On the % scale 0 is the no-effect control and ±100 the full control effect; potency means the concentration at half of the fitted maximal effect; tags describe the fitted curve by direction and shape.

Assay: qHTS for Inhibitors of human tyrosyl-DNA phosphodiesterase 1 (TDP1): qHTS in cells in presence of CPT; further: nearly all actives have a fitted effect of over 55% in size
Conditions: chicken DT40 Tdp1-/-;hTDP1 cells + 20 nM CPT, ATP luminescence, 48 h; activity change, negative = growth inhibition: at 46.2 µM (top of the series)
Outline: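 Chicken DT40 Tdp1-/- cells stably complemented with human TDP1 were seeded at 400 cells/well in medium containing 20 nM camptothecin, exposed to pin-transferred compounds, and grown at 37 °C for at least 48 hr. Viability was read as ATP luminescence.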
In the case of CCOC(=O)C1=CN(Cc2cccc(F)c2)S(=O)(=O)NC1c1ccc(F)c(Cl)c1 (centres undefined), the Potency is reported as inconclusive [inhibitor, single point].
In the case of N#Cc1ccc(NC(=O)COC(=O)C2Cc3ccccc3CN2C(=O)c2ccccc2)cc1 (centres undefined), the Potency is reported as active: 9.2 µM.
For Cc1ccc(C(C)C)c(OCC(=O)NN=C2CCCCCCC2)c1, the Potency was inconclusive [inhibitor, single point].
With CCC(=O)NCCc1nc2cc(NC(=O)c3ccc(F)cc3)ccc2n1C the Potency was “inactive”.
In the case of COc1ccc(C2Nc3cc(OC)ccc3-n3cccc32)cc1 (centres undefined), the Potency is reported as active: 23.1 µM.
For Nc1ccc(CCc2ccccn2)cc1, the Potency was “inactive”.
For Cn1nc(C(=O)NCc2ccc(F)cc2)cc1C(=O)NCc1ccc(F)cc1, the Potency was inconclusive [inhibitor, single point].
With CCOC(=O)c1ccc(NS(=O)(=O)c2ccc3c(c2)OCCO3)cc1 the Potency was active: 13 µM.
With Cc1ccc(CNc2ncnc3c2c(-c2ccccc2)cn3-c2ccccc2)cc1 the Potency was inconclusive [inhibitor, partial curve, poor fit].
In the case of Oc1ccc(C[C@H]2CNC(=S)N2C[C@H]2CCCN2C[C@H](Cc2ccccc2)N2C[C@H](Cc3ccc(O)cc3)N(CC3CCCCCC3)C2=S)cc1, the Potency is reported as active: 14.6 µM.
In the case of O=C(N[C@@H]1C/C=C\C[C@@H](CC(=O)N(CCO)Cc2ccccc2)C(=O)N[C@@H](c2ccccc2)COC1=O)OCC1c2ccccc2-c2ccccc21, the Potency is reported as active: 7.31 µM.
For CC(C)(C)NS(=O)(=O)c1ccc(NC(=O)NC2CCCCC2)cc1, the Potency was inconclusive [inhibitor, partial curve, poor fit].
In the case of COc1ccccc1OCCSc1nnnn1-c1ccc(C)cc1, the Potency is reported as inconclusive [inhibitor, single point].
With COC(=O)c1cc(S(=O)(=O)N2CCCC(C)C2)c[nH]1 (centres undefined) the Potency was inconclusive [inhibitor, single point].
For Cc1c(C(=O)c2ccc(F)cc2F)c2ccccn2c1CCC#N, the Potency was “inactive”.
For Cc1noc(C)c1-c1ccc(C(=O)NCC(C)C)c2occc12, the Potency was inconclusive [inhibitor, single point].
With O=c1ccsn1Cc1ccccc1 the Potency was active: 0.291 µM.
In the case of Cc1[nH]c(=O)[nH]c(=O)c1/C=C/C(=O)O, the Potency is reported as “inactive”.
With O=C(CC1Oc2ccccc2NC1=O)NCc1ccccc1 (centres undefined) the Potency was inconclusive [inhibitor, single point].
With COc1ccc(OC)c(CCNC(=O)Cn2ccc3cc(S(=O)(=O)N4CCCCC4)ccc32)c1 the Potency was inconclusive [inhibitor, single point].
With c1cnc2nc3c4ccccc4c4ccccc4c3nc2c1 the Potency was inconclusive [inhibitor, single point].
For S=C(NCc1cccnc1)c1ccccc1, the Potency was “inactive”.
For Cc1ccc(OCn2c(=O)sc3ccccc32)cc1, the Potency was inconclusive [inhibitor, single point].
With O=[N+]([O-])c1ccc2nc(-c3ccccc3)n(OCc3ccc(Cl)cc3)c2c1 the Potency was active: 14.6 µM.
For O=C(N/N=C/c1ccoc1)c1ccc(Cl)cc1Cl, the Potency was “inactive”.
With CCCN1CCN(CCCNC(=O)c2cc3c(=O)n(C)c4ccccc4c3n2C)CC1 the Potency was inconclusive [inhibitor, single point].
In the case of COc1ccc(C2OC34CCCCC3C(C#N)(C#N)C2(C#N)C(=N)O4)cc1 (centres undefined), the Potency is reported as active: 5.8 µM.
For CC1CCCN(C(=O)c2cccc(S(=O)(=O)N3CCCc4ccccc43)c2)C1 (centres undefined), the Potency was active: 10.3 µM.
In the case of CC(=O)c1c(C)[nH]c(C(=O)CSc2nnc(-c3ccc(Cl)cc3)n2CC2CCCO2)c1C (centres undefined), the Potency is reported as “inactive”.
With Cc1oc(-c2ccc(Cl)cc2)nc1CN1CCCC(C(=O)NC2CC2)C1 (centres undefined) the Potency was active: 16.4 µM.
With Cc1cnccc1CN(C)Cc1cn(C)nc1-c1cccc(Cl)c1 the Potency was inconclusive [inhibitor, single point].
With O=C(COc1ccc2ccccc2c1)N1CCN(C(=O)c2ccco2)CC1 the Potency was “inactive”.
With c1ccc2c(c1)c1ccccc1n2CN1CCOCC1 the activity change, negative = growth inhibition was inconclusive: -30.1% [inhibitor].
In the case of CCCSCCCNC(=O)c1ccc(NC(=O)C2=CSCCO2)cc1, the Potency is reported as “inactive”.
In the case of Cc1csc(N2CCCC2c2nc3cc(Cl)c(N4CCCCC4)cc3n2CCOCCO)n1 (centres undefined), the Potency is reported as inconclusive [inhibitor, partial curve].
With Nn1c(Cc2cccc3ccccc23)nnc1SCCOc1ccc(F)cc1 the Potency was inconclusive [inhibitor, partial curve].
In the case of O=C(O)C1=C[C@H](c2cccs2)C[C@H](OCc2ccc(CO)cc2)O1, the Potency is reported as “inactive”.
For Cc1ccccc1NC(=O)CSc1nc2n(n1)CCCCC2, the Potency was “inactive”.
In the case of CCN(CC)c1ccc(NC(=O)c2sc3ccccc3c2Cl)cc1, the Potency is reported as active: 20.6 µM.
In the case of CCC(=O)Nc1cccc(NC(=O)CSc2nc3c(c(=O)n(C)c(=O)n3C)n2C)c1, the Potency is reported as “inactive”.
In the case of Cc1cc(-c2ccc(Cl)cc2)n2nc(N)nc2n1, the Potency is reported as “inactive”.
With O=c1c2ccccc2nnn1CSc1nc2sc3c(c2c(=O)n1CC1CCCO1)CCC3 (centres undefined) the Potency was active: 16.4 µM.
For COc1ccc(OC)c(C(c2nnnn2C2CCCC2)N2CCN(c3ccc(F)cc3)CC2)c1 (centres undefined), the Potency was inconclusive [inhibitor, single point].
With O=C(N/N=C/c1cc(Cl)cc([N+](=O)[O-])c1O)C(O)(c1ccccc1)c1ccccc1 the Potency was inconclusive [inhibitor, single point].
With S=c1[nH]nc(-c2cc(-c3ccccc3)n[nH]2)n1/N=C/c1ccc(Cl)cc1 the Potency was “inactive”.
With Cc1ccc(N(C)S(=O)(=O)c2nnc(NC(=O)CC(C)C)s2)cc1 the Potency was “inactive”.
For COc1ccccc1-c1cc2nc(C)c(CCC(=O)NCCc3ccc(SC)cc3)c(C)n2n1, the Potency was inconclusive [inhibitor, single point].
In the case of O=C(/C=C/c1ccccc1)NC(=S)Nc1ccc2c3c(cccc13)CC2, the Potency is reported as inconclusive [inhibitor, partial curve, poor fit].
For CC(C)(C)C1CCc2c(sc(NC(=O)c3cccs3)c2C(=O)N2CCCCC2)C1 (centres undefined), the Potency was inconclusive [inhibitor, single point].
For Cc1ccc(C)c(CNC(=O)c2ccc3c(c2)nc2n3CCC(C)C2)c1 (centres undefined), the Potency was inconclusive [inhibitor, single point].
In the case of Cc1cc(C)c2nc(N3CCC(C(=O)NCCCN4CCCCC4)CC3)sc2c1, the Potency is reported as inconclusive [inhibitor, single point].
With CC(C)(C)[C@@H]1COC(=O)[C@H](Cc2ccc(F)cc2)CC/C=C\C[C@H](CC(=O)N(CCO)Cc2ccccc2)C(=O)N1 the Potency was active: 9.2 µM.
For CC1(C)C[C@H](O)[C@]2(CO)[C@H](O)C[C@]3(C)C(=CCC4[C@@]5(C)CC[C@H](O)C(C)(C)C5CC[C@]43C)[C@@H]2C1 (some centres undefined), the Potency was inconclusive [inhibitor, single point].
In the case of Cc1ccc(NC(=O)CSc2nc3c(c(=O)[nH]2)CN(Cc2ccc(F)cc2)CC3)cc1C, the Potency is reported as inconclusive [inhibitor, partial curve].
For COc1cccc(NC(=O)COC(=O)C2=NN(c3ccccc3)C(=O)CC2)c1, the Potency was “inactive”.
In the case of CCCn1c(=N)c(C(=O)NCc2cccnc2)cc2c(=O)n3ccccc3nc21, the Potency is reported as inconclusive [inhibitor, single point].
For O=C(Nc1nc2ccc(S(=O)(=O)N3CCOCC3)cc2s1)c1cccs1, the Potency was “inactive”.
In the case of O=C(/C=C/c1ccc(Cl)cc1)N1CCN(c2c(Cl)cccc2[N+](=O)[O-])CC1, the Potency is reported as inconclusive [inhibitor, single point].
In the case of CC1=CC2=NC(=O)/C(=C\c3cccn3CCOc3ccc(C)c(C)c3)C(=N)N2O1, the Potency is reported as inconclusive [inhibitor, single point].
With O=C1C=CC(=O)N1Cc1cccnc1 the Potency was inconclusive [inhibitor, single point].
For CC(=O)c1ccc(NC(=O)CSc2nc(Nc3ccccc3)nc(N3CCOCC3)n2)cc1, the Potency was inconclusive [inhibitor, single point].
For CCOc1ccc(C(=O)NC(=S)Nc2ccc(N3CCCCC3)cc2)cc1[N+](=O)[O-], the Potency was active: 11.6 µM.
With Cc1ccc(C2CC(c3cccs3)=NN2C(=O)CCl)cc1 (centres undefined) the Potency was active: 2.59 µM.
For CN(C)CCCC1(c2ccc(F)cc2)OCc2cc(C#N)ccc21 (centres undefined), the Potency was “inactive”.
With S=C(NCCc1ccncc1)Nc1ccccc1 the Potency was “inactive”.
In the case of CN1CCN(C2=C(Cl)C(=O)C(c3cnc(N4CCCCC4)s3)=C(Cl)C2=O)CC1, the Potency is reported as active: 2.06 µM.
For O=c1nc(Oc2ccccc2)nc2ncccn12, the Potency was inconclusive [inhibitor, single point].
For COc1ccc(CN2c3c(Br)cccc3C(=O)CS2(=O)=O)cc1, the Potency was inconclusive [inhibitor, partial curve].
In the case of CCOC(=O)Cc1ccc(NC(=O)Nc2cc3c(cc2N2CCCCC2)n(C)c(=O)n3C)cc1, the Potency is reported as active: 4.61 µM.
With COc1cccc(Nc2ncc3nc(-c4cccs4)c(=O)n(C[C@H]4CCCO4)c3n2)c1 the Potency was inconclusive [inhibitor, full curve, poor fit].
With COc1ccc(CC(=O)N2CCN(c3ccccc3OC)CC2)cc1 the Potency was “inactive”.
In the case of COc1cc(NC(=O)c2cc3c(C)nc4ccccc4c3o2)cc(OC)c1OC, the Potency is reported as active: 8.2 µM.
With Fc1ccc(-n2nnnc2-c2cnc(-c3cccs3)nc2C(F)(F)F)cc1 the Potency was active: 6.51 µM.
In the case of CN1CCN(c2ncc3nc(-c4ccc(Cl)cc4)c(=O)n(C4CC4)c3n2)CC1, the Potency is reported as inconclusive [inhibitor, single point].
